Assay results from PubChem BioAssay AID463254 (National Center for Advancing Translational Sciences (NCATS), 2010).
Among all 330,000 compounds or so, about 40 (0.01%) were called active. The shares of active, inactive and inconclusive entries below differ from those in the screen. Calls come from the whole dose curve; as a rule, active = well fitted inhibition curve with a large enough effect; inconclusive = small, poorly fitted or top-dose-only effect, or effect the other way; inactive = flat fitted curve, though single readings scatter. Potencies of inconclusive entries are doubtful fits and often do not repeat.

Target: Ubiquitin carboxyl-terminal hydrolase 2 (Homo sapiens) (UniProt O75604)
Sequence of UniProt O75604 (O75604 whole entry, looked up): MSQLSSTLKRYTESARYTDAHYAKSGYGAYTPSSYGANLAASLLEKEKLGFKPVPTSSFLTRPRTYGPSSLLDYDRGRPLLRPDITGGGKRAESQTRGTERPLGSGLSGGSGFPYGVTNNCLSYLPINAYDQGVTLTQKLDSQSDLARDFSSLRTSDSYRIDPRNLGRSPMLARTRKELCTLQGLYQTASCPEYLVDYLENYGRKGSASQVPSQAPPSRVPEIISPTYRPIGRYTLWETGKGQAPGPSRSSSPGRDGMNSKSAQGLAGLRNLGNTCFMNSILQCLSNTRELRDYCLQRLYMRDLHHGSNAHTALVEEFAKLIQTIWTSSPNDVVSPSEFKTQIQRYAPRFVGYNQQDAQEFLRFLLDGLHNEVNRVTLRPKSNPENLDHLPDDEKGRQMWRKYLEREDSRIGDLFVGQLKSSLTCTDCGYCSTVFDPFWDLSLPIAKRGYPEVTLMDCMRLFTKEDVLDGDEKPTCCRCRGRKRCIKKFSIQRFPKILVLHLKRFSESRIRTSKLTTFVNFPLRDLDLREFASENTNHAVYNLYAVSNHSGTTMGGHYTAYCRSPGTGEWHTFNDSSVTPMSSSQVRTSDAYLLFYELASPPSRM
Test: qHTS Assay for Inhibitors of Ubiquitin-specific Protease USP2a Using CHOP2 as the Reporter
Conditions: USP2 core, Ub-CHOP2 coupled fluorogenic reporter, 485/531; series mostly up to 38.3 µM
In short: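 Cell-free coupled assay: 10nM USP2 core preincubated 30min RT with compound in Tris-HCl pH 8.0/CaCl2/CHAPS buffer, then 25nM Ub-CHOP2 and 25nM reporter substrate; fluorescence (Ex 485/Em 531) read after 60min RT, normalized to NEM inhibition, concentration-response curves fitted.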
Potency is the fitted concentration of half-maximal effect; tags give direction and shape of the fitted curve or compound fluorescence and quenching.

Potency, active:
O=C(O)c1cc(O)c2c(c1)[C@@H]([C@H]1c3cc(C(=O)O)cc(O)c3C(=O)c3c(O[C@@H]4O[C@H](CO)[C@@H](O)[C@H](O)[C@H]4O)cccc31)c1cccc(O[C@@H]3O[C@H](CO)[C@@H](O)[C@H](O)[C@H]3O)c1C2=O 2 µM
C#CCOCCOCCOCCNc1nc(N2CCN(C(=O)CCCCCCCCCCNC(=O)[C@H](CCCCN)n3cc(C[C@@H](C)CC)nn3)CC2)nc(N2CCN(C(=O)CCCCCCCCCCNC(=O)[C@H](CCCN=C(N)N)n3cc(C[C@@H](C)CC)nn3)CC2)n1 10 µM

Potency, inactive:
CN(C)c1ccc(/C=N/NC(=O)CNC(=O)c2ccc3c(c2)OCCO3)cc1
Cc1ccccc1NC(=O)CCC(=O)N/N=C/c1cc([N+](=O)[O-])ccc1O
Cc1ccc(CC2CC(=O)N(CCc3ccc4c(c3)OCO4)C2=O)cc1 (configuration not stated)
Cc1cc2cc(CCNS(C)(=O)=O)c(=O)[nH]c2cc1C
COCCn1c(=NC(=O)c2ccc(S(=O)(=O)N3CCc4ccccc4C3)cc2)sc2cc(S(N)(=O)=O)ccc21
COc1cc(/C=C2\SC(=S)N(NC(=O)c3ccc(O)c(OC)c3)C2=O)ccc1O
Cc1oc(-c2cccs2)nc1CS(=O)CC(=O)NCCCOC(C)C (configuration not stated)
O=C1N=C(c2ccccc2)S/C1=C\c1cccs1
Cc1ccc(C(=O)O)cc1-c1ccc(C=C2C(=O)c3ccccc3C2=O)o1
O=C(O)CN1C(=O)/C(=C\c2ccccc2OCc2ccc(Cl)cc2)SC1=S
CSc1ccccc1-c1nnc(-c2ccc(Cl)c(Cl)c2)o1
Cc1cccc(C)c1OCc1cc(C(=O)N2CC3C[C@@H]4CC2C[C@H](C3)C4)no1
COc1ccc2c(C#N)c3ccccn3c2c1
CCCCn1c(Nc2ccccc2)nc2ccccc21
NS(=O)(=O)c1ccc(NC(=O)c2c(F)cccc2Cl)cc1
CC(C)(Oc1ccc(Cl)cc1)C(=O)NC1CCCCC1
CCOc1ccc(C(=O)CCN2CCCCC2)cc1

Potency, inconclusive:
c1coc(CNC2CCCCCCC2)c1 28.2 µM [falling, single point]
CCC(C)c1ccc(O)c(N)c1 (configuration not stated) 5.01 µM [falling, single point]
Cn1c(=O)[nH]c(=O)c2c1nc(NCc1ccccc1)n2CCCc1ccccc1 28.2 µM [falling, single point]
O=C(N/N=C/C=C/c1ccccc1)c1ccncc1 5.01 µM [falling, single point]
CCCN1C=CC(=CC=C(C#N)C#N)C=C1 22.4 µM [fluorescent, single point]
CCCCNc1ccc2c3c(cccc13)C(=O)N(CCCC)C2=O 6.31 µM [fluorescent, partial curve]
C#CCOCCOCCOCCNc1nc(N2CCN(C(=O)CCCCCCCCCCNC(=O)[C@H](CO)n3cc(CCCSC)nn3)CC2)nc(N2CCN(C(=O)CCCCCCCCCCNC(=O)[C@H](CCCCN)n3cc(C[C@@H](C)CC)nn3)CC2)n1 28.2 µM [falling, single point]
COc1ccc(C(=O)OCC(=O)c2c[nH]c3ccccc23)c(OC)c1 25.1 µM [falling, single point]
Nc1ccc(C2=Nc3cccc4cccc(c34)N2)cc1 11.2 µM [falling, single point]
CN1CCN(CCCCOc2ccc(F)cc2)CC1 28.2 µM [falling, single point]
CCCOc1ccc(N2C(=O)CC(NCCc3ccc(S(N)(=O)=O)cc3)C2=O)cc1 (configuration not stated) 25.1 µM [falling, single point]
O=C(CSc1nc2ccccc2s1)NCCCN1CCOCC1 5.01 µM [falling, single point]
CCOC(=O)c1c(-c2ccc(C)o2)csc1NC(=O)COC(=O)c1ccc(NC(N)=O)cc1 28.2 µM [falling, single point]
Cc1c(-c2ccc(O)cc2)nc2nc(-c3ccccc3)c(-c3ccccc3)nn12 11.2 µM [fluorescent, partial curve]
CC(C)c1ccc(C2=C(O)c3ccccc3C(=O)C2=O)cc1 28.2 µM [falling, single point]
Cc1ccc(C(=O)NCc2ccc3c(c2)OCO3)cc1N1CCCC1=O 5.01 µM [falling, single point]
COc1ccc(C2=NN(c3ccc(C=O)cc3)C(c3ccccc3)C2)cc1 (configuration not stated) 5.01 µM [falling, single point]
OC(CNCCC1C=Nc2ccccc21)Cn1c2ccc(Cl)cc2c2cc(Cl)ccc21 (configuration not stated) 28.2 µM [falling, single point]
O=S(=O)(Nc1ccc(O)c(Sc2nc3ccccc3s2)c1)c1cccc2ccccc12 28.2 µM [falling, single point]
O=C(Nc1ccccc1)c1cc(Cl)nc2ccccc12 3.98 µM [falling, single point]
O=C(O)C1CCN1C1CCCCC1 (configuration not stated) 28.2 µM [falling, single point]
Cn1c(C(=O)NCCCN2CCN(c3ccccc3F)CC2)cc2c(=O)n(C)c3ccccc3c21 5.01 µM [falling, single point]
NS(=O)(=O)c1ccc(CCNC(=O)c2cc3ccccc3s2)cc1 20 µM [falling, single point]
CCCCCCn1c(=O)[nH]c2nc3cc(N)c(C)cc3nc2c1=O 11.2 µM [fluorescent, partial curve]
CC1=CC2=NC(=O)/C(=C/c3coc4ccccc4c3=O)C(=N)N2O1 11.2 µM [fluorescent, partial curve]
COc1ccc(C(=O)CSc2nnc(-c3ccco3)c(-c3ccco3)n2)cc1 28.2 µM [falling, single point]
CCn1c2ccccc2c2cc(NC(=O)c3coc(=O)c(Br)c3)ccc21 28.2 µM [fluorescent, single point]
COc1ccc(CCNC(=O)Cc2cc(=O)[nH]c(=O)[nH]2)cc1OC 20 µM [falling, single point]
N#Cc1cc(C(=O)c2cc(F)ccc2O)cn(-c2nccs2)c1=O 11.2 µM [fluorescent, single point]
Cn1ccc(=Nc2ccc(NC(=O)c3ccc(N=c4ccn(C)c5ccc([N+](=O)[O-])cc45)cc3)cc2)cc1 14.1 µM [falling, single point]
CNC(=O)NC(=O)CSc1ccc(NC(C)=O)cc1 28.2 µM [falling, single point]
CCOc1ccc2[nH]c(=O)c(CN(Cc3cccs3)Cc3nnnn3C(C)(C)CC)cc2c1 20 µM [falling, single point]
Nn1c(Nc2ccccc2)nc2ccccc2c1=O 5.01 µM [falling, single point]
CCOC(=O)C1=CN(Cc2cccc(F)c2)S(=O)(=O)NC1c1ccc(Br)cc1F (configuration not stated) 10 µM [falling, single point]
Cc1ccc(NC(=O)COC(=O)c2ccc(NC(=O)CC#N)cc2)cc1S(=O)(=O)N1CCOCC1 22.4 µM [falling, single point]
Nc1ccc(Nc2cc(O)c3ncccc3c2)cc1 20 µM [falling, single point]
Cc1ccc(/C=C/C2=Cc3c(sc(NC(=O)CSc4n[nH]c(N)n4)c3C#N)C(C)(C)C2)o1 25.1 µM [falling, single point]
O=C(c1ccco1)N(CCC(c1ccccc1)c1ccco1)Cc1ccco1 (configuration not stated) 28.2 µM [falling, single point]
CCOC(=O)c1cnn(-c2nc3sc4c(c3c(=O)[nH]2)CCCC4)c1N 28.2 µM [falling, single point]
CC1CCCCN1CCNC(=O)c1cnn2ccccc12 (configuration not stated) 28.2 µM [falling, single point]
CC(=O)Nc1ccc(NC(=O)C2CCCN(S(=O)(=O)c3ccc(Cl)cc3)C2)cc1 (configuration not stated) 28.2 µM [falling, single point]
O=C1c2cccc3c(O)ccc(c23)C(=O)N1Cc1ccccc1 11.2 µM [fluorescent, partial curve]
FC(F)(F)c1cnc2c(c1)Nc1ccccc1S2 28.2 µM [falling, single point]
Cc1ccc(OCC(=O)Nc2ccc(N3CCCC3)cc2)cc1C 14.1 µM [falling, single point]
COc1ccc(CCn2c(O)cc3nn(-c4nc5ccccc5s4)c(=O)c-3c2C)cc1 28.2 µM [falling, single point]
Brc1ccc(C2=CC(c3cccs3)n3ncnc3N2)cc1 (configuration not stated) 17.8 µM [fluorescent, single point]
COc1ccc(C2C=C(c3cccs3)Nc3nc(CCCO)nn32)cc1 (configuration not stated) 15.8 µM [fluorescent, partial curve]
Cc1cc(N)c2cc(NC(=O)/C=C/c3ccccc3Cl)ccc2n1 25.1 µM [falling, single point]
